Source: the supplement of paper PMC9927326
MIC of clinical C. albicans isolates, CLSI broth microdilution (ranges and time not stated); higher = less susceptible. Call: susceptible or wild type [S] / resistant or non-wild type [R] by CLSI breakpoints or epidemiological cut-offs; intermediate and dose-dependent carry no call here (the paper groups them with resistant). '<=' and '>=' mark each drug's lowest and highest value, inferred; the source prints them plain. Isolates are numbered anew.

Experiments:
Experiment in all cases: CLSI broth microdilution.
flucytosine = compound: Nc1[nH]c(=O)ncc1F [flucytosine]
voriconazole = compound: C[C@@H](c1ncncc1F)[C@](O)(Cn1cncn1)c1ccc(F)cc1F [voriconazole]
itraconazole = compound: CCC(C)n1ncn(-c2ccc(N3CCN(c4ccc(OCC5COC(Cn6cncn6)(c6ccc(Cl)cc6Cl)O5)cc4)CC3)cc2)c1=O [itraconazole]
fluconazole = compound: OC(Cn1cncn1)(Cn1cncn1)c1ccc(F)cc1F [fluconazole]
micafungin = compound: CCCCCOc1ccc(-c2cc(-c3ccc(C(=O)N[C@H]4C[C@@H](O)[C@@H](O)NC(=O)[C@@H]5[C@@H](O)[C@@H](C)CN5C(=O)[C@H]([C@H](O)CC(N)=O)NC(=O)[C@H]([C@H](O)[C@@H](O)c5ccc(O)c(OS(=O)(=O)O)c5)NC(=O)[C@@H]5C[C@@H](O)CN5C(=O)[C@H]([C@@H](C)O)NC4=O)cc3)no2)cc1 [micafungin]
anidulafungin = compound: CCCCCOc1ccc(-c2ccc(-c3ccc(C(=O)N[C@H]4C[C@@H](O)[C@@H](O)NC(=O)[C@@H]5[C@@H](O)[C@@H](C)CN5C(=O)[C@H]([C@@H](C)O)NC(=O)[C@H]([C@H](O)[C@@H](O)c5ccc(O)cc5)NC(=O)[C@@H]5C[C@@H](O)CN5C(=O)[C@H]([C@@H](C)O)NC4=O)cc3)cc2)cc1 [anidulafungin]
amphotericin B = compound: C[C@@H]1[C@H](O)[C@@H](C)/C=C/C=C/C=C/C=C/C=C/C=C/C=C/[C@H](O[C@@H]2O[C@H](C)[C@@H](O)[C@H](N)[C@@H]2O)C[C@@H]2O[C@](O)(C[C@@H](O)C[C@@H](O)[C@H](O)CC[C@@H](O)C[C@@H](O)CC(=O)O[C@H]1C)C[C@H](O)[C@H]2C(=O)O [amphotericin B]
posaconazole = compound: CC[C@@H]([C@H](C)O)n1ncn(-c2ccc(N3CCN(c4ccc(OC[C@@H]5CO[C@@](Cn6cncn6)(c6ccc(F)cc6F)C5)cc4)CC3)cc2)c1=O [posaconazole]
caspofungin = compound: CC[C@H](C)C[C@H](C)CCCCCCCCC(=O)N[C@H]1C[C@@H](O)[C@@H](NCCN)NC(=O)[C@@H]2[C@@H](O)CCN2C(=O)[C@H]([C@H](O)CCN)NC(=O)[C@H]([C@H](O)[C@@H](O)c2ccc(O)cc2)NC(=O)[C@@H]2C[C@@H](O)CN2C(=O)[C@H]([C@@H](C)O)NC1=O [caspofungin]

| Test System | MIC (flucytosine) | MIC (voriconazole) | MIC (itraconazole) | MIC (fluconazole) | MIC (micafungin) | MIC (anidulafungin) | MIC (amphotericin B) | MIC (posaconazole) | MIC (caspofungin) |
| --- | --- | --- | --- | --- | --- | --- | --- | --- | --- |
| Candida albicans isolate 357 (Erg11p: WT, Fur1p: WT, Tac1p: I558V,A377V,F189S,N174D,M170I,K87N) | ≤ 0.06 mg/L [S] | ≤ 0.008 mg/L [S] | 0.03 mg/L [S] | 0.25 mg/L [S] | 0.015 mg/L [S] | 0.03 mg/L [S] | 1 mg/L [S] | 0.015 mg/L [S] | 0.03 mg/L [S] |
| Candida albicans isolate 244 (Erg11p: G129A, Fur1p: WT, Tac1p: R869Q,L695F,R688*,I558V,A377V,F189S,M170V,L131I) | ≤ 0.06 mg/L [S] | ≤ 0.008 mg/L [S] | 0.03 mg/L [S] | 0.5 mg/L [S] | 0.015 mg/L [S] | ≤ 0.015 mg/L [S] | 0.25 mg/L [S] | 0.03 mg/L [S] | 0.015 mg/L [S] |
| Candida albicans isolate 312 (Erg11p: Y132H,T123I, Fur1p: R101C, Tac1p: WT) | 0.25 mg/L [S] | 0.25 µg/mL | 0.12 mg/L [S] | 4 µg/mL | 0.015 mg/L [S] | ≤ 0.015 mg/L [S] | 0.5 mg/L [S] | 0.03 mg/L [S] | 0.015 mg/L [S] |
| Candida albicans isolate 257 (Erg11p: WT, Fur1p: WT, Tac1p: I895T) | ≤ 0.06 mg/L [S] | 0.015 mg/L [S] | 0.03 mg/L [S] | 1 mg/L [S] | ≤ 0.008 mg/L [S] | ≤ 0.015 mg/L [S] | 0.5 mg/L [S] | 0.03 mg/L [S] | 0.03 mg/L [S] |
| Candida albicans isolate 66 (Erg11p: WT, Fur1p: WT, Tac1p: I558V,A377V,F189S,N174D,M170I,K87N) | ≤ 0.06 mg/L [S] | ≤ 0.008 mg/L [S] | 0.03 mg/L [S] | 0.5 mg/L [S] | 0.015 mg/L [S] | ≤ 0.015 mg/L [S] | 0.5 mg/L [S] | 0.015 mg/L [S] | 0.015 mg/L [S] |
| Candida albicans isolate 188 (Erg11p: WT, Fur1p: WT, Tac1p: I558V,A377V,F189S,N174D,M170I,K87N) | ≤ 0.06 mg/L [S] | ≤ 0.008 mg/L [S] | 0.06 mg/L [S] | 0.5 mg/L [S] | 0.015 mg/L [S] | ≤ 0.015 mg/L [S] | 0.5 mg/L [S] | 0.03 mg/L [S] | 0.03 mg/L [S] |
| Candida albicans isolate 353 (Erg11p: E266D, Fur1p: WT, Tac1p: T885K,I558V,A430V,A377V,F189S,N174D,M170I,M170V,K87N) | ≤ 0.06 mg/L [S] | ≤ 0.008 mg/L [S] | 0.03 mg/L [S] | 0.25 mg/L [S] | ≤ 0.008 mg/L [S] | ≤ 0.015 mg/L [S] | 0.5 mg/L [S] | 0.015 mg/L [S] | 0.03 mg/L [S] |
| Candida albicans isolate 132 (Erg11p: WT, Fur1p: WT, Tac1p: WT) | ≤ 0.06 mg/L [S] | ≤ 0.008 mg/L [S] | 0.03 mg/L [S] | 0.5 mg/L [S] | 0.015 mg/L [S] | 0.03 mg/L [S] | 0.25 mg/L [S] | 0.015 mg/L [S] | 0.03 mg/L [S] |
| Candida albicans isolate 363 (Erg11p: V488I,E266D, Fur1p: WT, Tac1p: N896S,A377V,F189S,N174D,M170I,K87N) | ≤ 0.06 mg/L [S] | ≤ 0.008 mg/L [S] | 0.03 mg/L [S] | 0.25 mg/L [S] | 0.015 mg/L [S] | 0.06 mg/L [S] | 0.25 mg/L [S] | 0.015 mg/L [S] | 0.015 mg/L [S] |
| Candida albicans isolate 86 (Erg11p: V488I,E266D, Fur1p: WT, Tac1p: N896S,I895T,V279L) | ≤ 0.06 mg/L [S] | ≤ 0.008 mg/L [S] | ≤ 0.015 mg/L [S] | 0.5 mg/L [S] | 0.015 mg/L [S] | ≤ 0.015 mg/L [S] | 0.5 mg/L [S] | 0.015 mg/L [S] | 0.03 mg/L [S] |
| Candida albicans isolate 133 (Erg11p: Y132H,T123I, Fur1p: R101C, Tac1p: WT) | 0.12 mg/L [S] | 0.5 µg/mL | 0.12 mg/L [S] | 4 µg/mL | 0.015 mg/L [S] | ≤ 0.015 mg/L [S] | 0.5 mg/L [S] | 0.06 mg/L [S] | 0.015 mg/L [S] |
| Candida albicans isolate 277 (Erg11p: G465S,Y132H, Fur1p: R101C, Tac1p: WT) | 0.5 mg/L [S] | 0.12 mg/L [S] | ≤ 0.015 mg/L [S] | 1 mg/L [S] | 0.03 mg/L [S] | 0.03 mg/L [S] | 0.5 mg/L [S] | 0.015 mg/L [S] | 0.03 mg/L [S] |
| Candida albicans isolate 127 (Erg11p: V488I,E266D, Fur1p: WT, Tac1p: WT) | ≤ 0.06 mg/L [S] | ≤ 0.008 mg/L [S] | 0.03 mg/L [S] | 0.5 mg/L [S] | ≤ 0.008 mg/L [S] | 0.03 mg/L [S] | 0.5 mg/L [S] | 0.015 mg/L [S] | 0.03 mg/L [S] |
| Candida albicans isolate 231 (Erg11p: WT, Fur1p: WT, Tac1p: I558V,A377V,F189S,N174D,M170I,K87N) | ≤ 0.06 mg/L [S] | ≤ 0.008 mg/L [S] | ≤ 0.015 mg/L [S] | ≤ 0.12 mg/L [S] | 0.015 mg/L [S] | 0.03 mg/L [S] | 0.5 mg/L [S] | ≤ 0.008 mg/L [S] | 0.03 mg/L [S] |
| Candida albicans isolate 191 (Erg11p: WT, Fur1p: WT, Tac1p: N896S) | ≤ 0.06 mg/L [S] | ≤ 0.008 mg/L [S] | 0.03 mg/L [S] | 0.25 mg/L [S] | ≤ 0.008 mg/L [S] | 0.12 mg/L [S] | 0.25 mg/L [S] | 0.015 mg/L [S] | 0.03 mg/L [S] |
| Candida albicans isolate 103 (Erg11p: Y257H,A114S, Fur1p: R101C, Tac1p: A736V) | ≤ 0.06 mg/L [S] | 0.5 µg/mL | 0.5 mg/L [R] | 16 mg/L [R] | 0.015 mg/L [S] | ≤ 0.015 mg/L [S] | 0.25 mg/L [S] | 0.5 mg/L [R] | 0.03 mg/L [S] |
